These results are taken from PubChem BioAssay AID1240 (Sanford-Burnham Center for Chemical Genomics, 2008).

Screen size: about 50,000 compounds; about 800 (1.6%) showed an effect of 50% or more. Some of the results follow.

The target of this experiment is Bcl-2-like protein 10 (Homo sapiens) (UniProt Q9HD36). The experiment in a line: TR3 peptide-Bcl-B binding displacers, biochemical primary FP assay, phenotype converters (AID 1240).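 Also: 0% = Bcl-B with tracer peptide and DMSO and 100% = tracer peptide lacking Bcl-B.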 Particulars: GST-Bcl-B / FITC-TR3 peptide fluorescence polarization; stronger effect = higher value; compound at 3.75 mg/L. For orientation: In fluorescence polarisation assays a small probe gives low polarisation when free and higher when bound to something large.
Chain of UniProt Q9HD36 (Q9HD36 whole entry, looked up): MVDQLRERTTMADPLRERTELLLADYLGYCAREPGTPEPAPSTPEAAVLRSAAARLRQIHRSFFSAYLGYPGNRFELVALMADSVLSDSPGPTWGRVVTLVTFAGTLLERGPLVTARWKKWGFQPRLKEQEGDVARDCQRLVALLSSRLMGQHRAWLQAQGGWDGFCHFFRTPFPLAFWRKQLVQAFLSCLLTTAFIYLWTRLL
Turning to `CCOc1ccc(-c2cc(C(=O)OC)c3ccccc3n2)cc1`, the displacement is -9.6%. Then `O=C(O)C(Cc1ccccc1)N1C(=O)/C(=C/c2ccccc2[N+](=O)[O-])SC1=S` (stereo not given), with 38.3%; and `Cc1cc(Oc2ccc([N+](=O)[O-])cc2)nc(-n2nc(C)cc2C)n1`, with -4.5%; and `Clc1cccc(Cl)c1OCCCCN1CCOCC1`, with 2%.

As for `Cc1ccc(-c2nc3ccccn3c2NC(=O)c2ccco2)cc1`, the displacement came to 10.8%.

As for `CC(=C1C(=O)c2ccccc2C1=O)N1CCCC1`, the displacement was determined as 2%. Then `NC(=O)CCS(=O)(=O)c1ccccc1`, with 5.4%; and `Cc1ccsc1/C=C(/C#N)c1nc(-c2ccc(Cl)cc2)cs1`, with 81.1%; and `COc1ccc2c(c1)OCC/C2=N\OC(=O)c1ccc(C)cc1`, with 14.3%. Consider `COc1ccc(Cc2noc(-c3ccc(F)cc3)n2)cc1`, for which the displacement was -4.8%. `Cc1cc(Br)ccc1N1C(=O)/C(=C/C=C/c2ccccc2)C(=O)NC1=S`: the displacement is -17%. The value for `O=S1(=O)NC(=NC2CCCC2)c2ccccc21` was -2.6%; that for `COc1ccc(-c2cc(-c3ccccc3)nc(N/N=C/c3ccccc3F)n2)cc1` was -4.8%; that for `O=C(CSc1nc2ccccc2s1)Nc1ccccc1` was 7.4%. Regarding `O=S(=O)(NCC(c1ccccc1)N1CCCCC1)c1ccc(Cl)cc1` (stereo not given), the displacement stood at 9.4%. In the case of `CCN(CC)CCN1C(=O)C(O)=C(C(=O)/C=C/c2ccccc2)C1c1ccccc1OC` (stereo not given), the displacement was -7.2%. The value for `COc1ccc(COCC(O)CN2CCN(Cc3ccccc3)CC2)cc1OC` (stereo not given) was 8.2%; that for `O=C(Nc1ccc(Cc2ccc(NC(=O)C(F)(F)F)c([N+](=O)[O-])c2)cc1[N+](=O)[O-])C(F)(F)F` was 8.1%; that for `O=[N+]([O-])c1ccc(-c2ccc(N=Cc3nc(-c4ccccc4)oc3O)cc2)cc1` was 36.7%.

Turning to `COC(=O)c1c(N)sc2c1CCCC2`, the displacement was 10%. The value for `O=C(Nc1ccc(-c2ccc(NC(=O)c3cccnc3)c(Cl)c2)cc1Cl)c1cccnc1` was 2.4%; that for `Oc1ccc2ccccc2c1CN1CCN(c2cccc(C(F)(F)F)c2)CC1` was 10.5%; that for `CCOc1ccc(NC(=O)c2ccc(S(=O)(=O)N3CCOCC3)cc2)c([N+](=O)[O-])c1` was 6.5%. Then `O=C(c1ccccc1F)N1CCN(Cc2ccco2)CC1`, with -4.6%. Turning to `Cc1ccc(C(=O)NC(Nc2ccccc2C(F)(F)F)C(Cl)(Cl)Cl)cc1` (stereo not given), the displacement was -11.3%. The value for `COCCN1C(=O)C(=O)/C(=C(/O)c2ccccc2)C1c1cc(OC)ccc1OC` (stereo not given) was -25.2%; that for `O=C(CSc1nnnn1-c1ccccc1)c1ccc([N+](=O)[O-])cc1` was -12.7%. Consider `CC1C(C(=O)N(C=O)c2ccccc2)C2C=CC1C21CC1` (stereo not given), for which the displacement was 11.4%. The value for `COc1ccc(C=C2C(=O)NC(=O)N(c3cccc(OC)c3)C2=O)cc1` was 7.9%; that for `O=C(CSc1nnc(-c2cccc(F)c2)n1-c1ccccc1)NC(c1ccccc1)c1ccccc1` was -10.7%. Regarding `CCN(CC)CCCOc1ccc(Cl)cc1C`, the displacement is -5.3%. The value for `CSC1=NC2(CCCCC2)CC12C=CC(=O)C=C2` was -7.1%; that for `CC(C)c1cccc(C(C)C)c1NC(=O)COc1ccccc1[N+](=O)[O-]` was -5%; that for `CSc1ccccc1N1C(=O)C=CC1=O` was 4.3%. The value for `CCOC(=O)c1c(-c2ccccc2)oc2ccc(OCC(=O)C(C)(C)C)cc12` was 7.3%; that for `COC(=O)c1ccc(C(=O)OC)c(NC(=O)COc2cc(C)cc(C)c2)c1` was -5.7%. Then `COc1ccccc1/C=C1\SC(=S)N(NC(=O)c2ccccc2)C1=O`, with 3.9%.

Regarding `COc1ccc(CCNC(=O)COc2ccc(C)cc2)cc1`, the displacement was 1%. Then `COc1cc(NC(=O)/C=C/c2ccc(Cl)cc2)ccc1NC(=O)c1ccco1`, with 10.1%; and `O=C(O)/C(=C\c1ccc(Cl)cc1)NC(=O)c1ccco1`, with -0.6%. Then `O=C(N/N=C/c1ccc(O)c(I)c1)c1cccc([N+](=O)[O-])c1`, with 9.1%. For the compound `O=C(/C=C/c1ccc2c(c1)OCO2)Nc1ccccc1I`, the displacement was found to be 3.8%. Regarding `O=S(=O)(N=C(Nc1ccccn1)c1ccccc1)c1ccc(Cl)cc1`, the displacement is 8.5%.

For `COc1ccc(C(=O)CSc2nc(N)cc(=O)[nH]2)cc1[N+](=O)[O-]`, the displacement came to 7.8%.

Take `N#C/C(=C/C=C/c1ccco1)C(=O)Nc1cccc(Br)c1`: the displacement was 59.3%. As for `Cc1ccc(C(=O)N/C(=C/c2cccc3ccccc23)C(=O)N2CCCC2)cc1`, the displacement was determined as 14.4%. With `O=S(=O)(NC1C2CC3CC(C2)CC1C3)c1ccc(Cl)cc1` (stereo not given), the displacement was determined as 0%. Take `Nc1c(S(=O)(=O)Cc2ccccc2)sc2nc3c(cc12)CCCC3`: the displacement is -7.4%. The value for `O=C(NCc1ccco1)c1cnn2c(-c3ccccc3)cc(-c3ccccc3)nc12` was 12.3%. The value for `O=C(NC1CCCC1)c1sc2cc(Cl)ccc2c1Cl` was -4.7%. As to `Cc1nnc(C)n1/N=C/c1c(O)ccc2ccccc12`, the displacement came to 10.2%. `O=C(N/N=C/c1ccncc1)c1cc(-c2ccc3ccccc3c2)n[nH]1`: the displacement was -9.4%.

`COc1cccc(C=C2C(=O)c3ccccc3C2=O)c1`: the displacement came to 20.2%.

As for `NC(=O)c1cc2nc(-c3ccc(Cl)c(Cl)c3)cc(C(F)(F)F)n2n1`, the displacement is 1.8%. The value for `CCc1ccc(OCC(=O)Nc2ccc(-c3nc4ccccc4s3)c(O)c2)cc1` was 11.4%; that for `N#Cc1c(NC(=O)c2c(C(=O)O)cccc2[N+](=O)[O-])sc2c1CCCC2` was 7.3%. With `O=C(Oc1ccc(Br)cc1C(=S)N1CCOCC1)c1ccc([N+](=O)[O-])cc1`, the displacement was 7.3%. In the case of `O=[N+]([O-])c1ccc(Cl)cc1NCCOc1cccc2ccccc12`, the displacement was found to be 11.1%. For `CCOC(=O)NC(NC(=S)Nc1ccc(OCC)cc1)C(Cl)(Cl)Cl` (stereo not given), the displacement was -5.1%. The value for `COC(=O)c1ccccc1NC(=O)COc1ccc(C)cc1C` was 3.5%; that for `Cc1ccc(N2C(=O)C3C(C2=O)C2(C)C=CC3(C)O2)c([N+](=O)[O-])c1` (stereo not given) was 10.8%; that for `COC(=O)c1ccc(C(=O)OC)c(NC(=O)C(C)(C)C)c1` was 4.4%. The value for `CCC1(C)NC(=S)N(c2nc(-c3ccccc3)cs2)N1` (stereo not given) was -18.9%; that for `Cn1c2c(c3cc(Cl)ccc31)CCCC2C#N` (stereo not given) was 6.7%; that for `CCOc1ccc(C2=C/C(=C/c3ccc(OC)c(OC)c3)C(=O)O2)cc1` was 34.8%. For `CS(=O)(=O)N/N=C/c1ccc2c(c1)OCO2`, the displacement came out at 8.4%.

Take `COc1ccc(S(=O)(=O)N(CC(=O)Nc2cccc(C(C)=O)c2)c2ccc(C)cc2)cc1OC`: the displacement is 9.1%. Turning to `c1ccc2sc(CCSCCc3nc4ccccc4s3)nc2c1`, the displacement is -12.1%.

`NC(=O)CSc1nc2sc3c(c2c(=O)n1-c1ccccc1)CCC3`: the displacement was determined as 4.5%. Then `O=C(c1cc(Cl)ccc1Cl)N1CCN(c2ccccc2)CC1`, with 8.3%; and `CCOCCOC(=O)c1ccc(NC(=O)c2ccc(Br)cc2)cc1`, with 4%. Then `CC(Cc1ccccc1)N=C(N)/C(C#N)=C\c1[nH]c2ccccc2c1O` (stereo not given), with 34.5%; and `COc1ccc(C2C(C(=O)/C=C/c3ccccc3)=C(O)C(=O)N2CCCCCC(=O)O)cc1` (stereo not given), with -9.1%; and `Cc1cccc(/C(N)=N/OC(=O)COc2ccc3ccccc3c2)c1`, with -8%.

As to `N#C/C(=C\c1ccccc1Cl)c1nc(-c2ccc(Cl)c(Cl)c2)cs1`, the displacement was 1.1%.

In the case of `Cc1ccc(N(Cc2ccc(C(=O)NC(C)(C)C)cc2)S(C)(=O)=O)cc1C`, the displacement was determined as 4.5%.

Turning to `CCOC(=O)/C=C1/NC2(CCCC2)Cc2cc(OC)c(OC)cc21`, the displacement is 7.7%. Turning to `CC(=O)NC(c1ccccc1)C1C(=O)N(c2ccccc2)N=C1C` (stereo not given), the displacement is 15.9%. The value for `CN(C1=NS(=O)(=O)c2ccccc21)c1ccccc1` was 15.7%; that for `COc1ccccc1NC(=O)C1=C(C)NC(SCc2ccccc2)=C(C#N)C1c1ccco1` (stereo not given) was 4.2%; that for `O=C1Nc2c(S(=O)(=O)Nc3ccccc3)cc(S(=O)(=O)Nc3ccccc3)c3cccc1c23` was 9.4%. The value for `Cc1c(Br)c(C(F)(F)F)nn1CC(=O)NCc1cccs1` was 0.7%.

In the case of `CCOc1ccccc1/C=C/C(=O)c1ccc(Cl)cc1`, the displacement stood at 0%. Then `COc1cccc(NC(=O)CSC(N)=O)c1`, with 1%. Take `Cc1ccc(N2CC(C(=O)NCC(C)O)CC2=O)cc1` (stereo not given): the displacement is 11.9%. The value for `COc1ccc(S(=O)(=O)N2CCN(Cc3ccc(F)cc3)CC2)cc1` was -4.6%; that for `Cc1ccc(OCC(=O)Nc2ccc(Cl)cc2C)c(Br)c1` was 10.6%. The value for `Cc1cc2nc(-c3cc(NC(=O)c4ccc(Br)o4)ccc3Cl)oc2cc1C` was -3.9%.

On to `O=C1NC(=S)N(c2ccc(Cl)cc2)C(=O)/C1=C/c1ccc(N2CCOCC2)o1`, for which the displacement is 3.2%. The value for `Cc1ccc(-c2nn(-c3cc(N4CCN(CCO)CC4)ccc3[N+](=O)[O-])c(=O)c3ccccc23)cc1C` was 7.4%. Then `CCOc1cc(C=C2C(=O)NC(=O)NC2=O)ccc1OS(=O)(=O)c1ccc(C)cc1`, with 10.1%; and `Cc1ccc2c(c1)NC(c1cccc(O)c1)C1=C(CC(C)(C)CC1=O)N2` (stereo not given), with 25.8%; and `Cc1ccc(OC(=O)C(C)N2C(=O)c3ccccc3C2=O)cc1C` (stereo not given), with 1.1%. The value for `CC(C)COc1ccc(C(=O)Nc2ccc(Cl)cc2)cc1` was 13.1%. Turning to `CC(=O)C(=Cc1ccccc1O)C(C)=O`, the displacement is -4.2%. Then `C=CCN1C(=O)/C(=C/c2ccco2)SC1=S`, with 46.5%. `COc1ccc(NC2SC(=O)NC2=O)cc1` (stereo not given): the displacement was determined as 6.3%.

For `CC(=O)NNC(=O)COc1ccc(C)cc1`, the displacement was determined as 10.6%. The value for `CCOc1ccc(-c2csc(-c3cc4cc([N+](=O)[O-])ccc4oc3=O)n2)cc1` was -2.2%; that for `O=[N+]([O-])c1ccc(N/N=C/c2cccc(Oc3ccccc3)c2)cc1` was 6.2%. The value for `Cc1ccccc1N1OC2C(=O)N(c3ccc(Br)cc3)C(=O)C2C1c1ccco1` (stereo not given) was -52.7%.

Take `COc1ccccc1-c1coc2cc(OC(=O)c3ccco3)ccc2c1=O`: the displacement is 47.9%.

`CC1CC(N(C(=O)c2ccc(Cl)cc2)c2ccccc2)c2ccccc2N1` (stereo not given): the displacement turned out to be 6.8%. Then `CC(C)(Oc1ccc(C2CCCCC2)cc1)C(=O)O`, with -5.5%; and `COc1ccc(Nc2nc(NNc3cccc(C(F)(F)F)c3)nc(C)c2[N+](=O)[O-])cc1`, with 9.1%; and `O=C1S/C(=C/C=C/c2cccc([N+](=O)[O-])c2)C(=O)N1c1ccccc1`, with 7.6%. The value for `Nc1ccc2c(c1)C(=O)N(c1ccccc1)C2=O` was 6.1%; that for `O=C1CC(Cc2ccc(Cl)cc2)C(=O)N1c1ccc(I)cc1` (stereo not given) was -15%; that for `CC(C)(C)c1csc(NC(=O)COc2ccc(F)cc2)n1` was 9.1%. The value for `COc1ccc(-c2nc(NC(=O)c3ccccc3F)sc2-c2ccc([N+](=O)[O-])cc2)cc1` was 13.6%.
